Measurements as given in PMC6919601, “Identification of Plasmodium dipeptidyl aminopeptidase allosteric inhibitors by high throughput screening” (PLoS ONE, 2019).
Out of some 110,000 compounds screened, about 230 (0.21%) showed an effect of 50% or more. This is one part of the list.

biological target: DPAP1 (Plasmodium falciparum, UniProt Q8IIJ9); assay: primary screen, percent inhibition; read by cleavage of a fluorogenic dipeptide substrate; higher = more effect of the substance; set-up: species or system P. falciparum D10 trophozoite lysates; single well
Sequence (Q8IIJ9 whole entry, looked up): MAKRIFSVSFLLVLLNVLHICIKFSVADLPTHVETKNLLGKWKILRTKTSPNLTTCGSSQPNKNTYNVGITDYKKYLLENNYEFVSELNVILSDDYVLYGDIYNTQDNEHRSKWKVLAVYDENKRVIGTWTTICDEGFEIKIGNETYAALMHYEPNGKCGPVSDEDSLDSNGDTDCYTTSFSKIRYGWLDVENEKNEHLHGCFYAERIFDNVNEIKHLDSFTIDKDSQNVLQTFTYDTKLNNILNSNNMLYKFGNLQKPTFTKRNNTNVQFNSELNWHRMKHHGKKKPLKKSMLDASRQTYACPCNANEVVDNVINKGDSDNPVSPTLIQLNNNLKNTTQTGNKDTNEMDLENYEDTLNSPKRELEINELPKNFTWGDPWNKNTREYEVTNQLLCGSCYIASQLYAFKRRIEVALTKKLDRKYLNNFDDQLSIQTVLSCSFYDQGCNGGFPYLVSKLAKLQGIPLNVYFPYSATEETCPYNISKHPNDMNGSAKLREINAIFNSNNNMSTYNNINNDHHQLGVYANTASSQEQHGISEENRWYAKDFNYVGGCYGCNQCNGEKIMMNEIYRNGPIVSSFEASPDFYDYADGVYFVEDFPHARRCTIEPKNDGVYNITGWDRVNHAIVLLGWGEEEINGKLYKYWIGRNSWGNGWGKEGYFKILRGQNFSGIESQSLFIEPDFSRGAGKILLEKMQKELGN
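Further: 30 min substrate incubation versus DMSO and 10 µM JCP410 controls.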

Compound | % Inhibition @ 10 uM [%]
Cc1ccc(C2Nc3cc(C)c(C)cc3N=C3CC(C)(C)CC(O)=C32)o1 (stereo not drawn) | -0.968
CN(C)CCN(Cc1cccs1)S(=O)(=O)c1ccc(-c2cc(C(F)(F)F)no2)s1 | 2.58
COc1ccc(Cl)cc1N(Cc1ccccc1)Cc1ccccc1 | -2.19
Cc1nn(CC(=O)N2CCN(Cc3ccccc3)CC2)c(=O)c2cc3sccc3n12 | 1.8
O=C1CC(N2CCN(c3ccc(F)cc3)CC2)C(=O)N1c1ccc(F)cc1 (stereo not drawn) | 0.912
O=C(O)C1CCCCC1C(=O)N1CCN(c2ccccc2)CC1 (stereo not drawn) | 3.93
O=C(c1c[nH]c2c1ccc1ccccc12)C(F)(F)F | 1.66
O=C(Cn1ccc2cc(S(=O)(=O)N3CCCCC3)ccc21)N1CCOCC1 | -0.899
O=C(CCn1c(=O)c2sccc2n(CC(=O)NCc2ccco2)c1=O)NCc1ccccc1 | -5.09
CCC(C(=O)NCCCc1ccccc1)n1nc(C)n2c(cc3sccc32)c1=O (stereo not drawn) | 3.4
CCc1nc2sc3c(c2c(=O)o1)CCCCC3 | -11
CCCC(=O)Nc1ccccc1NC(=O)COc1ccc(Br)cc1Cl | -3.49
O=C(c1ccccc1)c1ccc(NC(=O)C(F)(F)F)cc1 | -5.46
O=C(NCc1ccco1)c1ccc2c(O)c(S(=O)(=O)c3ccccc3)c(O)nc2c1 | 8.23
CSc1ccc(/C=C(\C#N)c2nn(-c3ccccc3)c(N)c2C#N)cc1 | 4.1
CC(=O)Nc1ccc(-c2nc3c(Cl)cc(Cl)cc3[nH]2)cc1 | -3.12
Cc1c(Cl)cccc1N(CC(=O)NCc1cccnc1)S(=O)(=O)c1ccccc1 | -3.5
CCc1ccc(CNC(=O)C2CCCN(S(C)(=O)=O)C2)cc1 (stereo not drawn) | 6.86
CC(C)C[C@H](NC(=O)c1ccc(N2CCOCC2)cc1)C(=O)NCCN(CC(C)C)CC(C)C | 0.173
CCOC(=O)N1CCN(c2c(NC3CCCCCC3)c(=O)c2=O)CC1 | 3.54
O=C(Cc1ccc(-c2ccccc2)cc1)Nc1ccc(F)cc1 | 0.634
CCC(=O)Nc1ccc2nc(SCC(=O)N3CCN(c4ccccc4)CC3)sc2c1 | -0.759
O=C(O)COc1cccc(-c2nc3ccccc3s2)c1 | -10.6
CC(=O)c1c(C)oc2ccc(NS(=O)(=O)c3ccc4c5c(cccc35)C(=O)N4)cc12 | 19
Cc1ccc2nc3c(cc(C(=O)NCC4CCCO4)c(=N)n3C3CCCCC3)c(=O)n2c1 (stereo not drawn) | 3.6

Compound | % Inhibition @ 10 uM [%]
Cc1nn(CC(=O)N2CCCCC2)c2ccccc12 | -4.71
Cc1cc(C)cc(Oc2nc3ccccn3c(=O)c2/C=C(\C#N)C(=O)NCCc2ccccc2)c1 | -5.1
COc1ccccc1-c1cc(/N=C(/NCC2CCCO2)SC)[nH]n1 (stereo not drawn) | -5.92
O=C(Nc1ccc(N2C(=O)CCC2=O)cc1)c1ccccc1 | 2.63
Cc1ccccc1-c1c(C)oc2c(CN(C)C)c(O)ccc2c1=O | -18.8
O=C(O)CCC(=O)N1N=C(c2ccc(Br)cc2)CC1c1cccs1 (stereo not drawn) | -0.413
COc1cc2c(cc1OC)C(c1cccc(Cl)c1)N(C1CCSC1)CC2 (stereo not drawn) | -0.13
COc1ccc(OCCNC(=O)c2ccc3snnc3c2)cc1 | -5.36
CCN(CC)C(=O)c1sc(NC(=O)c2cccc(C)c2)c(C#N)c1C | -0.864
Cc1noc(/C=C/c2ccco2)c1S(=O)(=O)N1CCC(C(=O)NCCN2CCCCCC2)CC1 | 0.458
Cc1ccc(CNC(=O)CCCn2sc3ccccc3c2=O)cc1 | -1.06
COc1ccc(C2=N/C(=C\c3ccc(OC)c(OC)c3OC)C(=O)O2)cc1 | 5.79
Cc1cccc(N2CCN(C(=O)c3cccc([N+](=O)[O-])c3C)CC2)c1C | -5.62
N#Cc1nc(-c2ccc(F)cc2)oc1N1CCN(Cc2ccccc2)CC1 | 0.101
CCOC(=O)c1[nH]c2ccccc2c1NC(=O)c1ccccc1Cl | -3.48
Cc1cc(C)nc(NC(=O)NS(=O)(=O)Nc2ccc(Br)cn2)n1 | 0.716
Cc1ccc(C)c(Cn2cnc3ccccc32)c1 | -0.99
CC1=CC(C)C(C(=O)O)C(C(=O)O)C1 (stereo not drawn) | -4.18
Fc1ccc(N2CCN(Cc3cccc(Cl)c3Cl)CC2)cc1 | -9.48
Cc1ccc2ccc(S(=O)(=O)N3CCOCC3)cc2c1 | -2
CC(NC(=O)CCCn1sc2ccccc2c1=O)c1ccccc1 (stereo not drawn) | -2.84
CCC1CCCCN1CCCNC(=O)Cn1ncc2c(C)n(Cc3ccccc3)c(C)c2c1=O (stereo not drawn) | 2.84
CSc1cc(-c2ccco2)oc1C(=O)c1ccco1 | -3.33
Cc1nc2sccn2c1-c1csc(Nc2ccc(O)cc2)n1 | -2.48
Cc1cc(-c2[nH]nc3c2C(c2cccc(C(F)(F)F)c2)C(C#N)=C(N)O3)c(C)s1 (stereo not drawn) | -6.59

Compound | % Inhibition @ 10 uM [%]
CC1CCN(C(=O)C23CCC(C)(C(=O)O2)C3(C)C)CC1 (stereo not drawn) | -2.14
Cc1ccc(Cl)cc1N/C=C(\C#N)C(=O)NC(=O)Cc1ccccc1 | -4.75
Cc1ccc(C)n1-c1ccc(Oc2ccc(C#N)cc2)cc1 | 4.54
Cc1ccc(CNC(=O)CCCN2C(=S)NC(C)(C)CC2C)cc1 (stereo not drawn) | 1.91
CCCC(=O)Nc1ccc(-c2cn3cccc(C)c3n2)cc1 | -1.89
CC1=NN(c2ccccc2)C(=O)/C1=C1/C(=O)Nc2ccccc21 | -2.76
Cc1ccc(CNC(=O)COc2ccc(S(=O)(=O)NC3CCCC3)cc2)cc1 | -1.61
CC1CCN(S(=O)(=O)c2ccc3c(ccn3CCC(=O)N3CC(C)CC(C)C3)c2)CC1 (stereo not drawn) | 3.45
O=C(Nc1cccc(C(F)(F)F)c1)C1CC(=O)N(c2ccc(Br)cc2)C1 (stereo not drawn) | 1.71
CCCC[C@H](NC(=O)[C@H](CCC)N[C@@H](c1ccc(-c2ccc(S(N)(=O)=O)cc2)cc1)C(F)(F)F)C(=O)c1nnc(-c2ccco2)o1 | -4.72
CCOC(=O)C1=CN(C)C=C(C(=O)OCC)C1c1ccc(OC)c(Br)c1 | 4.99
CCc1ccc2nc(N3CCC(C(=O)NC(C)c4ccccc4)CC3)sc2c1 (stereo not drawn) | 1.07
Cc1cnc(NC(=O)CSc2nnc(COc3c(C)cccc3C)o2)s1 | -8.71
O=C(NC(Cc1ccccc1)c1ccccc1)c1ccco1 (stereo not drawn) | -6.91
O=C(Cc1ccc(F)cc1F)Nc1ccc(Br)cc1 | -2.54
COc1ccc(-c2cn3c(C)c(C(=O)NCCCOC(C)C)sc3n2)cc1 | 3.19
COc1ccc(-n2ccc3ccccc32)cc1 | -4.06
CCOc1ccc(C(=O)C2=C(O)C(=O)N(c3nccs3)C2c2ccc(C)cc2)cc1 (stereo not drawn) | 0.583
Cc1noc2ncn(CC(=O)NC(C)C)c(=O)c12 | -4.21
CCN(CCNc1ncnc2onc(-c3ccc(F)cc3)c12)Cc1ccccc1 | 0.533
O=C(NCc1ccco1)C1CC(c2ccccc2F)=NO1 (stereo not drawn) | -0.431
COC(=O)c1ccc(COc2ccc3c(=O)c(-c4ccccc4)coc3c2)cc1 | -3.21
O=C(Nc1ccccc1)Nc1ccc(S(=O)(=O)N2CCCCCC2)cc1 | -5.32
COc1ccc(N(C(C)C(=O)Nc2ccc(C)c(C)c2)S(C)(=O)=O)cc1 (stereo not drawn) | -1.95
CCCCNC(=O)C1CCN(c2nnc(C)c3c(C)n(-c4ccccc4)nc23)CC1 | 10.2

Compound | % Inhibition @ 10 uM [%]
CN(C)c1cccc(NC(=O)C(c2ccccc2)c2ccccc2)c1 | 1.57
Cc1ccc(S(=O)(=O)NCc2ccc(C(=O)NCCCN(CC(C)C)CC(C)C)cc2)cc1 | -3.35
CC1CN(S(=O)(=O)c2ccc(C(=O)N3CCNCC3)cc2)CC(C)O1 (stereo not drawn) | -1.11
CCCN1CCC(N2CCCCCC2)CC1 | -3.6
Cc1cc(C)cc(OCC(O)CNC(C)C)c1 (stereo not drawn) | 3
COc1cc(C2C3=C(O)CCCC3=Nc3nn(-c4ccccc4)c(O)c32)ccc1O (stereo not drawn) | -5
CCOC(=O)C1=C(C)N=C(SC)NC1c1ccc(OC)cc1 (stereo not drawn) | 5.04
Cc1cc(C)c2c(n1)SCC(=O)N2CCCC(=O)NCc1ccc(OC(C)C)cc1 | 1.03
N#Cc1c(-c2ccc(Cl)cc2)nc2n(c1=O)CCS2 | 2.45
Cc1cccc2sc(NS(=O)(=O)c3ccc(F)cc3)nc12 | -5.57
CCN(CC)CCCNC(=O)CSc1cc(Cl)nc2ccc(C)cc12 | 4.33
CCS(=O)(=O)N1CCCC(C(=O)NCc2ccc3c(c2)OCO3)C1 (stereo not drawn) | 1.62
CCCNC(=O)c1ccc(C2SCC(=O)N2Cc2ccccc2)cc1 (stereo not drawn) | -2.32
Cc1oc2c(c1C(=O)NCc1cc(C(=O)O)co1)CCCC2 | -3.34
COc1ccc(Cl)cc1-c1nc(-c2ccc(C)cc2)no1 | -3.53
CCOCC(O)CSCc1ccc(Cl)cc1 (stereo not drawn) | -2.54
CC(C)CNS(=O)(=O)c1ccc(CCC(=O)NC2CCCCC2)cc1 | 4.05
Cc1ccc(CSc2nc(=O)c3c(n2C)NC(=O)CC3c2ccc(O)c(O)c2)cc1 (stereo not drawn) | 11.1
O=C(Cc1ccncn1)c1ccccc1 | 2.55
CN1CCN(Cc2c3c(c(CN4CCN(C)CC4)c4c2CCC4)CCC3)CC1 | -4.15
CCOCCCNC(=O)c1c(NC(=O)Cc2coc3c(C)c(C)ccc23)sc2c1CCCC2 | -0.671
COc1ccc(CNC(=O)Cc2c(C)nc3c(-c4ccc(F)cc4)c(C)nn3c2C)cc1 | 2.57
CCCS(=O)(=O)N1CCC(C(=O)NC(C)CC)CC1 (stereo not drawn) | 3.24
COc1ccc(C2=N/C(=C\c3cc(Br)cs3)C(=O)O2)cc1Br | -2
